The whole screen tested about 230,000 compounds, of which about 1,500 (0.65%) were called active. The inconclusive results got no clear call from the source; some entries with a clear call stand among them for comparison. Calls come from the whole dose curve; as a rule, active = well fitted inhibition curve with a large enough effect; inconclusive = small, poorly fitted or top-dose-only effect; inactive = no such curve, though single readings can be large or run the other way. Potencies of inconclusive entries are doubtful fits and often do not repeat.
target: Lethal(3)malignant brain tumor-like protein 1 (Homo sapiens) (UniProt Q9Y468); experiment: qHTS Assay for the Inhibitors of L3MBTL1; details: AlphaScreen L3MBTL1–H3K9me1 peptide binding; series mostly up to 57.1 µM; note: nearly all actives have a fitted effect of over 60% in size
How it was run: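 Displacement of a biotinylated histone H3(1-15) peptide monomethylated at Lys9 (75 nM) from L3MBTL1 (50 nM) was measured by AlphaScreen after a 30 min room-temperature compound incubation; cefsulodin titration served as intraplate control.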
Potency is the fitted concentration of half-maximal effect; tags give direction and shape of the fitted curve.

Structure (SMILES)	Potency
Cc1ccc2c(CC(=O)NC3CCCc4ccccc43)coc2c1 (stereo unspecified)	inactive
Cc1[nH]c2ccccc2c1C(=O)C(C)OC(=O)c1ccc([N+](=O)[O-])o1 (stereo unspecified)	inconclusive: 31.6 µM [inhibitor, single point]
CCC(C)NC(=O)C1CCC(=O)N(c2cc(OC)c(OC)c(OC)c2)C1c1ccc(OC)cc1 (stereo unspecified)	inconclusive: 8.91 µM [inhibitor, partial curve]
CNCc1ccc(OCc2ccccc2)c(OC)c1	inactive
COc1ccc(NC(=O)Nc2nc(C)cc(C)n2)c(OC)c1	inactive
CC1(C)CNc2cc(N)ccc2S1	inconclusive: 0.398 µM [inhibitor, full curve, poor fit]
O=C(COC(=O)c1cc2ccccc2cc1O)NC(=O)NCc1ccco1	inconclusive: 25.1 µM [inhibitor, partial curve]
COc1ccc(N2C(=O)NC3CC2(C)Oc2ccccc23)cc1OC (stereo unspecified)	inconclusive: 39.8 µM [inhibitor, single point]
CCOC(=O)C1=C(C)N(C)C(=O)C1CC(=O)O (stereo unspecified)	inactive
CCS(=O)(=O)Nc1ccc(Cc2ccncc2)cc1	inconclusive: 5.62 µM [inhibitor, partial curve]
O=C(c1ccco1)N(CCC(c1ccccc1)c1ccco1)Cc1ccccc1 (stereo unspecified)	inconclusive: 35.5 µM [inhibitor, single point]
COc1ccc(NC(=O)CC2C(=O)N(c3cccc(OC)c3)C(=O)N2C(C)C)cc1 (stereo unspecified)	inconclusive: 6.31 µM [inhibitor, single point]
COc1ccc(C2CC(c3ccccc3)=NN2C(=O)COC(=O)c2nc3nc(C)cc(C)n3n2)cc1 (stereo unspecified)	inconclusive: 0.891 µM [inhibitor, full curve, poor fit]
CCNc1nc(N)c(C(=O)C23CC4CC(CC(C4)C2)C3)s1	inconclusive: 22.4 µM [inhibitor, partial curve]
Cc1cc(C)cc(NC(=S)Nc2ccccn2)c1	inactive
C[C@H](CO)N1C[C@H](C)[C@@H](CN(C)C(=O)NC2CCCCC2)Oc2c(NC(=O)C3CCCCC3)cccc2C1=O	inactive
O=C(Nc1cccc(Cl)c1)c1ccc2c(c1)SC1=NS(=O)(=O)CCN12	inactive
CC1=NN(c2ccccc2)C(=O)/C1=C/c1cn(C)c2ccccc12	inconclusive: 14.1 µM [inhibitor, partial curve]
S=C1NC2=C(CCC/C2=C\c2ccc(Cl)cc2)C(c2ccc(Cl)cc2)N1 (stereo unspecified)	inconclusive: 31.6 µM [inhibitor, partial curve]
CC1CC(=O)c2c(cc3c(-c4c(O)cc(O)c5c(O)c6c(cc45)OC(C)CC6=O)c(O)cc(O)c3c2O)O1 (stereo unspecified)	active: 0.631 µM
CCn1c(O)c(N=NC(=O)c2cccs2)c2ccccc21	inconclusive: 28.2 µM [inhibitor, single point]
CCC(CO)Oc1cc(NCc2ccc(F)cc2)c2ncn(C(C)C)c2c1 (stereo unspecified)	inconclusive: 35.5 µM [inhibitor, single point]
CN(C)c1ccc(N=Nc2ccccc2C(=O)OCC(=O)Nc2ccccc2C(F)(F)F)cc1	active: 25.1 µM
CN=C1N(C)C[C@@H]2[C@@H]3C(=O)N(C)C(=O)[C@@H]3[C@](C)(C(=O)OC)N12	inactive

Structure (SMILES)	Potency
Fc1ccc(/C=N/NC(=S)Nc2cccnc2)cc1	inconclusive: 10 µM [inhibitor, partial curve, poor fit]
CCOC(=O)Cc1csc(NC(=S)NC(=O)c2ccc(F)cc2)n1	inconclusive: 6.31 µM [inhibitor, single point]
N#CCC(=O)Nc1ccc(C(=O)OCC(=O)NC(=O)NCc2ccco2)cc1	inconclusive: 35.5 µM [inhibitor, single point]
CC(=O)c1sc2nsc(SCCN3CCCC3)c2c1N	inconclusive: 12.6 µM [inhibitor, partial curve]
Cc1cc(SCCOc2ccccc2)nc(N)n1	inconclusive: 0.708 µM [inhibitor, single point]
O=C(NCc1ccc(F)cc1)c1c(O)c2cccc3c2n(c1=O)CCC3	inactive
C1=CC2C3C=CC(C3)C2C1 (stereo unspecified)	inactive
O=C(CN1CCN(c2ccccn2)CC1)Nc1cccc(C(F)(F)F)c1	inconclusive: 7.08 µM [inhibitor, single point]
O=c1cc(-c2ccccc2)oc2cc(O)c(O)c(O)c12	active: 15.8 µM
CN(C)CCn1nnnc1SCC1=C(C(=O)O)N2C(=O)[C@@H](NC(=O)Cc3csc(N)n3)[C@H]2SC1	active: 28.2 µM
O=C(/C=C/c1ccccc1)c1ccc2c3c(cccc13)CC2	inconclusive: 0.794 µM [inhibitor, single point]
CC(=O)N1c2ccccc2NC2=C(C(=O)CCC2)C1c1ccco1 (stereo unspecified)	inactive
COc1ccc(C(=O)NCc2nnc(SCC(=O)N3CCOCC3)o2)cc1	inconclusive: 1.12 µM [inhibitor, full curve, poor fit]
COc1cccc(/C=N/N2CCN(Cc3ccccc3)CC2)c1O	inactive
O=C(Nc1ccc2c(c1)OCCO2)c1coc2ccccc2c1=O	inactive
COc1ccc(S(=O)(=O)N2CCc3ccccc32)cc1C(=O)NCCc1ccccn1	inconclusive: 0.126 µM [inhibitor, full curve, poor fit]
COc1ccc2ccccc2c1/C=N/N1C(=O)CSC1=S	inconclusive: 28.2 µM [inhibitor, partial curve]
COc1cc(NC(=O)c2ncn[nH]2)cc(OC)c1OC	inconclusive: 12.6 µM [inhibitor, partial curve, poor fit]
COc1cccc(C(=O)Oc2cc3c4c(c2)C(C)=CC(C)(C)N4C(=O)C3=O)c1	inconclusive: 22.4 µM [inhibitor, partial curve]
COCCCNC(=O)c1c(N)n(/N=C/c2ccccn2)c2nc3ccccc3nc12	inconclusive: 39.8 µM [inhibitor, single point]
COCCOC(=O)/C(C#N)=C/c1cn(Cc2ccccc2)nc1-c1cccnc1	inconclusive: 39.8 µM [inhibitor, single point]
O=C(Nc1nc(-c2ccccn2)cs1)c1ccc(F)c(S(=O)(=O)N2CCOCC2)c1	inconclusive: 39.8 µM [inhibitor, single point]
Cc1c(Cl)cccc1NC(=O)CCC(=O)N/N=C/c1ccc[nH]1	inactive
COc1ccc(C(=O)COC(=O)c2ccc(Cl)nc2)cc1OC	inactive

Structure (SMILES)	Potency
Cc1cc(C(=O)COC(=O)CNC(=O)c2ccccc2)c(C)n1CC1CCCO1 (stereo unspecified)	inconclusive: 0.501 µM [inhibitor, full curve, poor fit]
CC1(C)CC2(CC(C)(C)N1)OC(=O)N1CCc3ccccc3C12C (stereo unspecified)	inconclusive: 39.8 µM [inhibitor, single point]
Cc1sc2nc(CSc3nc4ccccc4s3)[nH]c(=O)c2c1C	inconclusive: 3.55 µM [inhibitor, full curve]
CCN(CC)c1ccc(NC(=O)CN2CCN(c3nc(C)cc(C)n3)CC2)cc1	inconclusive: 15.8 µM [inhibitor, single point]
CCOC(=O)CN1N=C(/C=C/c2ccc(OCC)cc2)CCC1=O	inconclusive: 2.82 µM [inhibitor, partial curve, poor fit]
COc1cccc(NS(=O)(=O)c2ccc3[nH]cc(C(=O)NCCc4ccc(C)cc4)c(=O)c3c2)c1	inconclusive: 22.4 µM [inhibitor, partial curve]
CN1CCN(/N=C/c2ccc(OCc3ccccc3)cc2)CC1	inactive
O=c1[nH][nH]c(C(F)(F)F)c1C=Nc1ccccc1	inactive
O=C(NCCS(=O)(=O)N1CCC2(CC1)OCCO2)c1ccc(F)cc1	inactive
O=C(Cc1cccs1)NCc1ccc2c(c1)OCO2	inconclusive: 3.98 µM [inhibitor, single point]
Clc1ccc(CSc2nnc(/C=C/c3ccccc3)o2)cc1	inconclusive: 6.31 µM [inhibitor, single point]
Cc1c(N/N=C(\C#N)C(=O)c2ccc(Cl)cc2)c(=O)n(-c2ccccc2)n1C	inconclusive: 28.2 µM [inhibitor, single point]
CCCC(C)C(=O)Nc1ccc(Cl)cn1 (stereo unspecified)	inconclusive: 3.55 µM [inhibitor, single point]
Cc1cccc(Oc2ccccc2NS(=O)(=O)c2ccc(CCC(=O)O)cc2)c1	inconclusive: 31.6 µM [inhibitor, single point]
CC(CCc1ccccc1)NC(=O)C1CCCN(c2nnc(-n3cccc3)s2)C1 (stereo unspecified)	inconclusive: 7.08 µM [inhibitor, single point]
COc1ccc(/C=C/C(=O)O)cc1S(=O)(=O)N1CCc2ccccc2C1	inconclusive: 39.8 µM [inhibitor, partial curve, poor fit]
CCOc1cccc(/C=N/NC(=S)Nc2cc(S(=O)(=O)N3CCOCC3)ccc2N2CCOCC2)c1O	inconclusive: 28.2 µM [inhibitor, single point]
CC(C)c1nnc(NC(=O)c2ccc(N3C(=O)CCC3=O)cc2)s1	inactive
CCOC(=O)Cn1cc(/C=N/N2C(=O)C3C4C=CC(C4)C3C2=O)c2ccccc21 (stereo unspecified)	inactive
O=C(Nc1ccc2c(c1)OCCO2)C1CCN(S(=O)(=O)c2cccc3nsnc23)CC1	inconclusive: 7.08 µM [inhibitor, single point]
FC(F)(F)c1nc2ccccc2[nH]1	inactive
COc1ccc2cc(C(c3nnnn3CCc3ccccc3)N3CCCC(C)C3)c(=O)[nH]c2c1 (stereo unspecified)	inactive
O=C(NC1(O)C(=O)c2ccccc2C1=O)c1ccccc1	inconclusive: 25.1 µM [inhibitor, partial curve]
